Experimental data as given in US20250129160A1 (Amgen, published 2025).

T1: cynomolgus monkey CCR8 (T4R), Mauritian origin (cynomolgus monkey, UniProt O97665 1-356 (rhesus entry))
T1 construct: also called cy CCR8 (T4R); Cy CCR8 (T4R)
T1 chain: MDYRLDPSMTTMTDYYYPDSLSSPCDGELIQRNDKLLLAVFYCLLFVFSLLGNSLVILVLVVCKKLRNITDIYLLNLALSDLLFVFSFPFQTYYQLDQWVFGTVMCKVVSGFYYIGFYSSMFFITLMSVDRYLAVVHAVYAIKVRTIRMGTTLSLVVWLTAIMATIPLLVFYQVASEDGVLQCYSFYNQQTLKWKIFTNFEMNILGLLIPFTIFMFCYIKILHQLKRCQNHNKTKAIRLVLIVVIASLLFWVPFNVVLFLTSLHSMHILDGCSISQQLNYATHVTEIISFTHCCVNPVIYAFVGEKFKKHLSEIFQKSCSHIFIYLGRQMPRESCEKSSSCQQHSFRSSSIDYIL

T2: CCR8 P_1-12 peptide construct (human, not fully specified (C-terminus); also: BAP biotinylated in vivo, fused construct pieces' sequences not given here)
T2 construct: coupled to streptavidin beads; not shown: G4S linker, V5 tag, G4S linker, chicken albumin, then FLAG tag, BAP and H3G each via SG linker
T2 chain: MDYTLDLSVTTV

T3: CCR8 P_25-35 peptide construct (human, not fully specified (C-terminus); also: BAP biotinylated in vivo, fused construct pieces' sequences not given here)
T3 construct: coupled to streptavidin beads; not shown: G4S linker, V5 tag, G4S linker, chicken albumin, then FLAG tag, BAP and H3G each via SG linker
T3 chain: CDAELIQTNGK

T4: CCR8 P_7-18 peptide construct (human, not fully specified (C-terminus); also: BAP biotinylated in vivo, fused construct pieces' sequences not given here)
T4 construct: coupled to streptavidin beads; not shown: G4S linker, V5 tag, G4S linker, chicken albumin, then FLAG tag, BAP and H3G each via SG linker
T4 chain: LSVTTVTDYYYP

T5: CCR8 P_13-24 peptide construct (human, not fully specified (C-terminus); also: BAP biotinylated in vivo, fused construct pieces' sequences not given here)
T5 construct: coupled to streptavidin beads; not shown: G4S linker, V5 tag, G4S linker, chicken albumin, then FLAG tag, BAP and H3G each via SG linker
T5 chain: TDYYYPDIFSSP

T6: CCR8 P_19-30 peptide construct (human, not fully specified (C-terminus); also: BAP biotinylated in vivo, fused construct pieces' sequences not given here)
T6 construct: coupled to streptavidin beads; not shown: G4S linker, V5 tag, G4S linker, chicken albumin, then FLAG tag, BAP and H3G each via SG linker
T6 chain: DIFSSPCDAELI


How the values were obtained:
[1] = biological target: T7, cynomolgus monkey CCR8 (Chinese origin) (cynomolgus monkey, UniProt O97665 1-356 (rhesus entry)); assay: cyno Kd divided by human Kd
T7 construct: on transfected CHO cells; also called cyno CCR8; Cy CCR8

[2] = biological target: T1, cynomolgus monkey CCR8 (T4R), Mauritian …; assay: flow cytometry, CHO cells expressing cynomolgus CCR8 (T4R)
[3] = biological target: T7, cynomolgus monkey CCR8 (Chinese origin); assay: flow cytometry, CHO cells expressing cynomolgus CCR8
human CCR8 [4] = biological target: T8, human CCR8 (human, UniProt P51685 1-355); assay: cell-based or functional assay
[5] = biological target: T1, cynomolgus monkey CCR8 (T4R), Mauritian …; assay: cyno (T4R) Kd divided by human Kd
[6] = biological target: T2, CCR8 P_1-12 peptide construct; assay: flow cytometry, peptide construct on streptavidin beads, 5 µg/mL
[7] = biological target: T3, CCR8 P_25-35 peptide construct; assay: as above
[8] = biological target: T4, CCR8 P_7-18 peptide construct; assay: as above
[9] = biological target: T9, CCR8 P_1-35 peptide construct (full-length N-terminal peptide of human CCR8) (human, BAP biotinylated in vivo); assay: as above
T9 construct: from HEK 293 supernatant, coupled to streptavidin beads; not shown: G4S linker, V5 tag, G4S linker, chicken albumin, then FLAG tag, BAP and H3G each via SG linker

[10] = biological target: T5, CCR8 P_13-24 peptide construct; assay: as above
[11] = biological target: T6, CCR8 P_19-30 peptide construct; assay: as above
human CCR8 [12] = biological target: T8, human CCR8; assay: flow cytometry, CHO cells expressing human CCR8

Row | Binder | Affinity gap Kdcy/Kdhu CCR8 [1] [ratio] | Kd [2] [nM] | Kd [3] [nM] | EC50, 48-hour FACS based cytotoxicity assay, HUT-78 (CD3+) (human CCR8 [4]) [nM] | Affinity gap Kdcy (T4R)/Kdhu CCR8 [5] [ratio] | Median Fluorescence of Sample/Median Fluorescence of Negative Control [6] [ratio] | Median Fluorescence of Sample/Median Fluorescence of Negative Control [7] [ratio] | Median Fluorescence of Sample/Median Fluorescence of Negative Control [8] [ratio] | Median Fluorescence of Sample/Median Fluorescence of Negative Control [9] [ratio] | Median Fluorescence of Sample/Median Fluorescence of Negative Control [10] [ratio] | Median Fluorescence of Sample/Median Fluorescence of Negative Control [11] [ratio] | Kd (human CCR8 [12]) [nM]
1 | CCR8 TCE4 scFab × I2E × scFc (bispecific antibody, single chain; also called TCE4 CCR8 scFab (CCR8) x scFv (CD3) x scFc) QVQLVESGGGVVQPGRSLRLSCAASGFTFSSYGMHWVRQAPGKGLEWVAVISYDGSNKYYADSVKGRFTISRDNSKNTLYLQMNSLRAEDTAVYYCARGRYFDWFLFDYWGQGTLVTVSSASTKGPSVFPLAPSSKSTSGGTAALGCLVKDYFPEPVTVSWNSGALTSGVHTFPAVLQSSGLYSLSSVVTVPSSSLGTQTYICNVNHKPSNTKVDKKVEPKSCGGGGQGGGGQGGGGQGGGGQGGGGQGGGGQGGGGQGGGGQDTVMTQTPLSLSVTPGQPASISCKSSQSLLHSDGKTYLFWYLQKPGQPPQLLISEVSNRFSGVPDRFSGSGSGTDFTLKISRVEAEDVGFYYCMQSLRLPLTFGGGTKVEIKRTVAAPSVFIFPPSDEQLKSGTASVVCLLNNFYPREAKVQWKVDNALQSGNSQESVTEQDSKDSTYSLSSTLTLSKADYEKHKVYACEVTHQGLSSPVTKSFNRGECSGGGGQEVQLVESGGGLVQPGGSLKLSCAASGFTFNKYAINWVRQAPGKGLEWVARIRSKYNNYATYYADAVKDRFTISRDDSKNTVYLQMNNLKTEDTAVYYCARAGNFGSSYISYWAYWGQGTLVTVSSGGGGQGGGGQGGGGQQTVVTQEPSLTVSPGGTVTIT[about 80 residues not given here]FGSGTKLTVLGGGGCPPCPAPELLGGPSVFLFPPKPKDTLMISRTPEVTCVVVDVSHEEPEVKFNWYVDGVEVHNAKTKPCEEQYGSTYRCVSVLTVLHQDWLNGKEYKCKVSNKALPAPIEKTISKAKGQPREPQVYTLPPSREEMTKNQVSLTCLVKGFYPSDIAVEWESNGQPENNYKTTPPVLDSDGSFFLYSKLTVDKSRWQQGNVFSCSVMHEALHNHYTQKSLSLSPGKGGGGQGGGGQGGGGQGGGGQGGGGQGGGGQCPPCPAPELLGGPSVFLFPPKPKDTLMISRTPEVTCVVVDVSHEEPEVKFNWYVDGVEVHNAKTKPCEEQYGSTYRCVSVLTVLHQDWLNGKEYKCKVSNKALPAPIEKTISKAKGQPREPQVYTLPPSREEMTKNQVSLTCLVKGFYPSDIAVEWESNGQPENNYKTTPPVLDSDGSFFLYSKLTVDKSRWQQGNVFSCSVMHEALHNHYTQKSLSLSPGK | 40 | 1260 | 456 | 1.25 | 111 | 1 | 1.1 | 1 | 1170 | 996 | 1.1 | 11.4
2 | CCR8 TCE3 scFab × I2E × scFc (bispecific antibody, single chain; also called TCE3 scFab (CCR8) x scFv (CD3) x scFc) QVQLVESGGGVVQPGRSLRLSCEASGFTFSSYVMHWVRQAPGKGLEWVSVISYDGSSQYYTDSVKGRFTISRDNSKNTLNLQMNSLRAEDTAVYYCVRGRLATAILFDYWGQGTLVTVSSASTKGPSVFPLAPSSKSTSGGTAALGCLVKDYFPEPVTVSWNSGALTSGVHTFPAVLQSSGLYSLSSVVTVPSSSLGTQTYICNVNHKPSNTKVDKKVEPKSCGGGGQGGGGQGGGGQGGGGQGGGGQGGGGQGGGGQGGGGQEILMTQTPLSLSVTPGQPASISCKSSQSLLYSDGKTYLFWYLQRPGQPPQLLIYEVSNRFSGVPDRFSGSGSGTDFTLKISRVEAEDVGIYYCMQSIKLPLTFGGGTKVEIKRTVAAPSVFIFPPSDEQLKSGTASVVCLLNNFYPREAKVQWKVDNALQSGNSQESVTEQDSKDSTYSLSSTLTLSKADYEKHKVYACEVTHQGLSSPVTKSFNRGECSGGGGQEVQLVESGGGLVQPGGSLKLSCAASGFTFNKYAINWVRQAPGKGLEWVARIRSKYNNYATYYADAVKDRFTISRDDSKNTVYLQMNNLKTEDTAVYYCARAGNFGSSYISYWAYWGQGTLVTVSSGGGGQGGGGQGGGGQQTVVTQEPSLTVSPGGTVTIT[about 80 residues not given here]FGSGTKLTVLGGGGCPPCPAPELLGGPSVFLFPPKPKDTLMISRTPEVTCVVVDVSHEEPEVKFNWYVDGVEVHNAKTKPCEEQYGSTYRCVSVLTVLHQDWLNGKEYKCKVSNKALPAPIEKTISKAKGQPREPQVYTLPPSREEMTKNQVSLTCLVKGFYPSDIAVEWESNGQPENNYKTTPPVLDSDGSFFLYSKLTVDKSRWQQGNVFSCSVMHEALHNHYTQKSLSLSPGKGGGGQGGGGQGGGGQGGGGQGGGGQGGGGQCPPCPAPELLGGPSVFLFPPKPKDTLMISRTPEVTCVVVDVSHEEPEVKFNWYVDGVEVHNAKTKPCEEQYGSTYRCVSVLTVLHQDWLNGKEYKCKVSNKALPAPIEKTISKAKGQPREPQVYTLPPSREEMTKNQVSLTCLVKGFYPSDIAVEWESNGQPENNYKTTPPVLDSDGSFFLYSKLTVDKSRWQQGNVFSCSVMHEALHNHYTQKSLSLSPGK | 21.1 |  | 271 | 0.478 |  | 1 | 1.1 | 1 | 1280 | 1090 | 1.1 | 12.8

Ends that are not written are not given here.
